The text below walks through data of the supplement of paper PMC12217912.

B1: TEV protease; numbered along this chain (parent)
chain: MGESLFKGPRDYNPISSSICHLTNESDGHTTSLYGIGFGPFIITNKHLFRRNNGTLVVQSLHGVFKVKDTTTLQQHLVDGRDMIIIRMPKDFPPFPQKLKFREPQREERICLVTTNFQTKSMSSMVSDTSCTFPSGDGIFWKHWIQTKDGQCGSPLVSTRDGFIVGIHSASNFTNTNNYFTSVPKNFMELLTNQEAQQWVSGWRLNADSVLWGGHKVFMVKPEEPFQPVKEATQL

The other results are listed elsewhere or left out. The full chains were built here from the parent and the listed change. Inactive controls read about 0.05.

The variants in the experiment derive from B1. Description: raw area under fraction-flipped curve 0-4 h after induction (AUC4h, not background-subtracted), DNA-recorder readout of cleavage of the substrate (dimensionless); higher = more cleavage of the substrate by the protease variant. The following applies: temperature: 34 °C; time window: 0-4 h after rhamnose induction. The procedure:
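In vivo DNA recorder in E. coli TOP10(DE3) ΔrhaA at 34 °C. Each TEVp single-site mutant (parent TEVp 0) is paired with a single-site variant of the 7-mer TEVs (canonical ENLYFQ|S). The substrate sits between flexible linkers in a Bxb1-sfGFP-TEVs-SsrA fusion, so cleavage stabilises Bxb1 and speeds flipping of a recombination array, read by NGS. The value is the raw area under the fraction-flipped curve over 0-4 h after rhamnose induction (AUC4h), with ≥20 reads per time point. It is not background-subtracted; inactive controls average about 0.047.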
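Also: Bxb1 expression induced with 0.2% (w/v) L-rhamnose at OD600 near 0.5, cultures sampled hourly, flipped fraction per protease–substrate barcode pair counted by paired-end Illumina sequencing.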

In the case of MGESLFKGPRDYNPISSSICHLTNESDGHTTSLYGIGFGPFIITNKHLFRRNNGTLVVQSLHGVFKVKDTTTLQQHLVDGRDMIIIRMPKDFPPFPQKLKFREPQREERICLVTTNFQTKSMSSMVSDTSCTFPSGDGIFWKHWIQTKDGQCGSPLVSTRDGFIVGIHSAANFTNTNNYFTSVPKNFMELLTNQEAQQWVSGWRLNADSVLWGGHKVFMVKPEEPFQPVKEATQL [S171A], the “area with substrate ENLYFAS” value turned out to be 0.0619, the “area with substrate ENLYFIS” value came out at 0.0484, the “area with substrate ENLYFNS” value is 0.0613 and the “area with substrate ENLYFPS” value was 0.0542. Further, the “area with substrate ENLYFRS” value was 0.0608 and the “area with substrate ENLYFSS” value was found to be 0.0706.

For the variant MGESLFKGPRDYNPISSSICHLTNESDGHTTSLYGIGFGPFIITNKHLFRRNNGTLVVQSLHGVFKVKDTTTLQQHLVDGRDMIIIRMPKDFPPFPQKLKFREPQREERICLVTTNFQTKSMSSMVSDTSCTFPSGDGIFWKHWIQTKDGQNGSPLVSTRDGFIVGIHSASNFTNTNNYFTSVPKNFMELLTNQEAQQWVSGWRLNADSVLWGGHKVFMVKPEEPFQPVKEATQL [C152N], the “area with substrate ENLYFAS” value was determined as 0.0546, the “area with substrate ENLYFCS” value stood at 0.0536, the “area with substrate ENLYFES” value worked out at 0.0628 and the “area with substrate ENLYFFS” value is 0.0754. In addition, the “area with substrate ENLYFIS” value was determined as 0.0552, the “area with substrate ENLYFLS” value came to 0.0686, the “area with substrate ENLYFPS” value stood at 0.0544 and the “area with substrate ENLYFRS” value was 0.0584. Besides, the “area with substrate ENLYFSS” value came out at 0.0692, the “area with substrate ENLYFTS” value was determined as 0.0388 and the “area with substrate ENLYFYS” value was 0.0634.

Turning to MGESLFKGPRDYNPISSSICHLTNESDGHTTSLYGIGFGPFIITNKHLFRRNNGTLVVQSLHGVFKVKDTTTLQQHLVDGRDMIIIRMPKDFPPFPQKLKFREPQREERICLVTTNFQTKSMSSMVSDTSCTFPSGDGIFWKHWIQTKDGQCGSPTVSTRDGFIVGIHSASNFTNTNNYFTSVPKNFMELLTNQEAQQWVSGWRLNADSVLWGGHKVFMVKPEEPFQPVKEATQL [L156T], the “area with substrate ENLYFAS” value was found to be 0.0619, the “area with substrate ENLYFCS” value is 0.061, the “area with substrate ENLYFDS” value came to 0.0666 and the “area with substrate ENLYFES” value stood at 0.0682. The “area with substrate ENLYFFS” value turned out to be 0.0641, the “area with substrate ENLYFGS” value is 0.0618, the “area with substrate ENLYFHS” value was 0.0521 and the “area with substrate ENLYFIS” value worked out at 0.062. Further, the “area with substrate ENLYFKS” value amounted to 0.0618, the “area with substrate ENLYFLS” value was found to be 0.0567, the “area with substrate ENLYFMS” value is 0.0671 and the “area with substrate ENLYFNS” value was 0.0574. Also, the “area with substrate ENLYFPS” value was 0.0593, the “area with substrate ENLYFRS” value amounted to 0.053, the “area with substrate ENLYFSS” value is 0.0585 and the “area with substrate ENLYFTS” value is 0.0557. Moreover, the “area with substrate ENLYFVS” value amounted to 0.0605, the “area with substrate ENLYFWS” value worked out at 0.0541 and the “area with substrate ENLYFYS” value worked out at 0.0522.

MGESLFKGPRDYNPISSSICHLTNESDGHTTSLYGIGFGPFIITNKHLFRRNNGTLVVQSLHGVFKVKDTTTLQQHLVDGRDMIIIRMPKDFPPFPQKLKFREPQREERICLVTTNFQTKSMSSMVSDTSCTFPSGDGIFWKHWIQTKDGQCGSPLVSTRDGFIYGIHSASNFTNTNNYFTSVPKNFMELLTNQEAQQWVSGWRLNADSVLWGGHKVFMVKPEEPFQPVKEATQL [V165Y]: the “area with substrate ENLYFAS” value was 0.0532, the “area with substrate ENLYFCS” value was 0.0559, the “area with substrate ENLYFFS” value was determined as 0.0664 and the “area with substrate ENLYFGS” value was 0.0523. Further, the “area with substrate ENLYFIS” value is 0.0552, the “area with substrate ENLYFLS” value was found to be 0.0594, the “area with substrate ENLYFMS” value came to 0.064 and the “area with substrate ENLYFNS” value was determined as 0.0346. For the same variant, the “area with substrate ENLYFRS” value stood at 0.065, the “area with substrate ENLYFSS” value is 0.0469, the “area with substrate ENLYFTS” value came out at 0.0651 and the “area with substrate ENLYFWS” value was determined as 0.051. Besides, the “area with substrate ENLYFYS” value came to 0.0426.

In the case of MGESLFKGPRDYNPISSSICHLTNESDGHTTSLYGIGFGPFIITNKHLFRRNNGTLVVQSLHGVFKVKDTTTLQQHLVDGRDMIIIRMPKDFPPFPQKLKFREPQREERICLVTTNFQTKSMSSMVSDTSCTFPSGDGIFWKHWIQTKDGQCGSPLVSTRDGFIWGIHSASNFTNTNNYFTSVPKNFMELLTNQEAQQWVSGWRLNADSVLWGGHKVFMVKPEEPFQPVKEATQL [V165W], the “area with substrate ENLYFAS” value came to 0.0527, the “area with substrate ENLYFCS” value was 0.0426, the “area with substrate ENLYFDS” value turned out to be 0.0561 and the “area with substrate ENLYFFS” value was 0.0494. Also, the “area with substrate ENLYFIS” value stood at 0.0524, the “area with substrate ENLYFNS” value stood at 0.055, the “area with substrate ENLYFPS” value is 0.0518 and the “area with substrate ENLYFRS” value was determined as 0.0672. The “area with substrate ENLYFTS” value came to 0.0461 and the “area with substrate ENLYFVS” value is 0.0532.

In the case of MGESLFKGPRDYNPISSSICHLTNESDGHTTSLYGIGFGPFIITNKHLFRRNNGTLVVQSLHGVFKVKDTTTLQQHLVDGRDMIIIRMPKDFPPFPQKLKFREPQREERICLVTTNFQTKSMSSMVSDTSCTFPSGDGIFWKHWIQTKDGQCGSPLVSTRDGFIVGIHEASNFTNTNNYFTSVPKNFMELLTNQEAQQWVSGWRLNADSVLWGGHKVFMVKPEEPFQPVKEATQL [S169E], the “area with substrate ENLYFAS” value is 0.0597, the “area with substrate ENLYFCS” value was 0.0555, the “area with substrate ENLYFDS” value was 0.0575 and the “area with substrate ENLYFES” value worked out at 0.0767. The “area with substrate ENLYFHS” value turned out to be 0.0515, the “area with substrate ENLYFIS” value was determined as 0.0644, the “area with substrate ENLYFKS” value is 0.0639 and the “area with substrate ENLYFLS” value was determined as 0.0548. The “area with substrate ENLYFMS” value was 0.0503, the “area with substrate ENLYFNS” value worked out at 0.055, the “area with substrate ENLYFPS” value came to 0.0678 and the “area with substrate ENLYFVS” value worked out at 0.0569.

On to MGESLFKGPRDYNPISSSICHLTNESDGHTTSLYGIGFGPFIITNKHLFRRNNGTLVVQSLHGVFKVKDTTTLQQHLVDGRDMIIIRMPKDFPPFPQKLKFREPQREERICLVTTNFQTKSMSSMVSDTSCTFPSGDGIFWKHWIQTKDGQCGSPLVSTRDGFIVGIHPASNFTNTNNYFTSVPKNFMELLTNQEAQQWVSGWRLNADSVLWGGHKVFMVKPEEPFQPVKEATQL [S169P], for which the “area with substrate ENLYFAS” value turned out to be 0.0631, the “area with substrate ENLYFCS” value worked out at 0.0679, the “area with substrate ENLYFDS” value amounted to 0.0665 and the “area with substrate ENLYFES” value was determined as 0.0542. The “area with substrate ENLYFFS” value was found to be 0.0568, the “area with substrate ENLYFHS” value stood at 0.0428, the “area with substrate ENLYFIS” value is 0.0689 and the “area with substrate ENLYFKS” value was found to be 0.0754. Besides, the “area with substrate ENLYFLS” value was 0.0487, the “area with substrate ENLYFNS” value was determined as 0.0626, the “area with substrate ENLYFPS” value turned out to be 0.0791 and the “area with substrate ENLYFSS” value worked out at 0.0608. Besides, the “area with substrate ENLYFVS” value worked out at 0.0509 and the “area with substrate ENLYFWS” value was 0.058.

Regarding MGESLFKGPRDYNPISSSICHLTNESDGHTTSLYGIGFGPFIITNKHLFRRNNGTLVVQSLHGVFKVKDTTTLQQHLVDGRDMIIIRMPKDFPPFPQKLKFREPQREERICLVTTNFQTKSMSSMVSDTSCTFPSGDGIFWKHWIQTKDGQCGSPLVSDRDGFIVGIHSASNFTNTNNYFTSVPKNFMELLTNQEAQQWVSGWRLNADSVLWGGHKVFMVKPEEPFQPVKEATQL [T159D], the “area with substrate ENLYFAS” value amounted to 0.0654, the “area with substrate ENLYFCS” value is 0.052, the “area with substrate ENLYFES” value is 0.0677 and the “area with substrate ENLYFGS” value was found to be 0.0675. Further, the “area with substrate ENLYFPS” value was 0.0544, the “area with substrate ENLYFSS” value stood at 0.0501, the “area with substrate ENLYFVS” value came out at 0.0353 and the “area with substrate ENLYFYS” value amounted to 0.0685.

Turning to MGESLFKGPRDYNPISSSICHLTNESDGHTTSLYGIGFGPFIITNKHLFRRNNGTLVVQSLHGVFKVKDTTTLQQHLVDGRDMIIIRMPKDFPPFPQKLKFREPQREERICLVTTNFQTKSMSSMVSDTSCTFPSGDGIFWKHWIQTKDGQCGSPLPSTRDGFIVGIHSASNFTNTNNYFTSVPKNFMELLTNQEAQQWVSGWRLNADSVLWGGHKVFMVKPEEPFQPVKEATQL [V157P], the “area with substrate ENLYFAS” value was 0.0542, the “area with substrate ENLYFCS” value is 0.0495, the “area with substrate ENLYFES” value was determined as 0.0463 and the “area with substrate ENLYFGS” value turned out to be 0.0568. For the same variant, the “area with substrate ENLYFHS” value stood at 0.043, the “area with substrate ENLYFIS” value amounted to 0.0449, the “area with substrate ENLYFLS” value was determined as 0.0718 and the “area with substrate ENLYFMS” value turned out to be 0.0607. Moreover, the “area with substrate ENLYFNS” value is 0.0578, the “area with substrate ENLYFPS” value is 0.0543, the “area with substrate ENLYFRS” value came to 0.0584 and the “area with substrate ENLYFSS” value was found to be 0.056. The “area with substrate ENLYFVS” value was found to be 0.0432 and the “area with substrate ENLYFYS” value turned out to be 0.053.
